The source of these data is PMC9911399, “Two distinct binding modes provide the RNA-binding protein RbFox with extraordinary sequence specificity”.

The chains are these.
T1: RBFOX1 RRM (Homo sapiens, UniProt Q9NWB1 109-208)
T1 sequence: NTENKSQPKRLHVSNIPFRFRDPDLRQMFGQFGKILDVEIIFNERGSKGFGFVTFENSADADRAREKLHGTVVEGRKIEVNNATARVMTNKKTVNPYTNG

B1: AAUGGAA (DNA:RNA)
RNA: GGGAGACCGGAAUUCAGAUUGUCCAAUGGAAUUAAAUCCCGUCGUAGCCACCA
DNA 1: CAATCTGAATTCCGGTCTCCC
DNA 2: TGGTGGCTACGACGGGATT
B2: UUCCGGG (DNA:RNA)
RNA: B1 RNA with A25U, A26U, U27C, G28C, A30G, A31G
DNA 1: CAATCTGAATTCCGGTCTCCC
DNA 2: TGGTGGCTACGACGGGATT
B3: CCUUCGU (DNA:RNA)
RNA: B1 RNA with A25C, A26C, G28U, G29C, A30G, A31U
DNA 1: CAATCTGAATTCCGGTCTCCC
DNA 2: TGGTGGCTACGACGGGATT
B4: GUAGGCG (DNA:RNA)
RNA: B1 RNA with A25G, A26U, U27A, A30C, A31G
DNA 1: CAATCTGAATTCCGGTCTCCC
DNA 2: TGGTGGCTACGACGGGATT
B5: UCAUGCU (DNA:RNA)
RNA: B1 RNA with A25U, A26C, U27A, G28U, A30C, A31U
DNA 1: CAATCTGAATTCCGGTCTCCC
DNA 2: TGGTGGCTACGACGGGATT
B6: CUACGGG (DNA:RNA)
RNA: B1 RNA with A25C, A26U, U27A, G28C, A30G, A31G
DNA 1: CAATCTGAATTCCGGTCTCCC
DNA 2: TGGTGGCTACGACGGGATT
B7: CCUCAUG (DNA:RNA)
RNA: B1 RNA with A25C, A26C, G28C, G29A, A30U, A31G
DNA 1: CAATCTGAATTCCGGTCTCCC
DNA 2: TGGTGGCTACGACGGGATT
B8: GUGAUUC (DNA:RNA)
RNA: GGGAGACCGGAAUUCAGAUUGUCCGUGAUUCUUAAAUCCCGUCGUAGCCACCA
DNA 1: CAATCTGAATTCCGGTCTCCC
DNA 2: TGGTGGCTACGACGGGATT
B9: GGGCAGG (DNA:RNA)
RNA: B8 RNA with U26G, A28C, U29A, U30G, C31G
DNA 1: CAATCTGAATTCCGGTCTCCC
DNA 2: TGGTGGCTACGACGGGATT
B10: CAGUUAU (DNA:RNA)
RNA: B1 RNA with A25C, U27G, G28U, G29U, A31U
DNA 1: CAATCTGAATTCCGGTCTCCC
DNA 2: TGGTGGCTACGACGGGATT
B11: AGCCGGA (DNA:RNA)
RNA: B1 RNA with A26G, U27C, G28C, A30G
DNA 1: CAATCTGAATTCCGGTCTCCC
DNA 2: TGGTGGCTACGACGGGATT
B12: AGCAGGC (DNA:RNA)
RNA: B1 RNA with A26G, U27C, G28A, A30G, A31C
DNA 1: CAATCTGAATTCCGGTCTCCC
DNA 2: TGGTGGCTACGACGGGATT
B13: CAGUAUU (DNA:RNA)
RNA: B8 RNA with G25C, U26A, A28U, U29A, C31U
DNA 1: CAATCTGAATTCCGGTCTCCC
DNA 2: TGGTGGCTACGACGGGATT
B14: GUGUAGC (DNA:RNA)
RNA: B8 RNA with A28U, U29A, U30G
DNA 1: CAATCTGAATTCCGGTCTCCC
DNA 2: TGGTGGCTACGACGGGATT
B15: UUUUUGG (DNA:RNA)
RNA: B8 RNA with G25U, G27U, A28U, U30G, C31G
DNA 1: CAATCTGAATTCCGGTCTCCC
DNA 2: TGGTGGCTACGACGGGATT
B16: ACGAAGA (DNA:RNA)
RNA: B1 RNA with A26C, U27G, G28A, G29A, A30G
DNA 1: CAATCTGAATTCCGGTCTCCC
DNA 2: TGGTGGCTACGACGGGATT
B17: GCCGUUA (DNA:RNA)
RNA: B8 RNA with U26C, G27C, A28G, C31A
DNA 1: CAATCTGAATTCCGGTCTCCC
DNA 2: TGGTGGCTACGACGGGATT
B18: UCAAUAG (DNA:RNA)
RNA: B8 RNA with G25U, U26C, G27A, U30A, C31G
DNA 1: CAATCTGAATTCCGGTCTCCC
DNA 2: TGGTGGCTACGACGGGATT
B19: ACGUUGA (DNA:RNA)
RNA: B1 RNA with A26C, U27G, G28U, G29U, A30G
DNA 1: CAATCTGAATTCCGGTCTCCC
DNA 2: TGGTGGCTACGACGGGATT
B20: UCAUCGG (DNA:RNA)
RNA: GGGAGACCGGAAUUCAGAUUGUCCUCAUCGGUUAAAUCCCGUCGUAGCCACCA
DNA 1: CAATCTGAATTCCGGTCTCCC
DNA 2: TGGTGGCTACGACGGGATT
B21: GUGCGUA (DNA:RNA)
RNA: B8 RNA with A28C, U29G, C31A
DNA 1: CAATCTGAATTCCGGTCTCCC
DNA 2: TGGTGGCTACGACGGGATT
B22: CGGGUCA (DNA:RNA)
RNA: B1 RNA with A25C, A26G, U27G, G29U, A30C
DNA 1: CAATCTGAATTCCGGTCTCCC
DNA 2: TGGTGGCTACGACGGGATT
B23: CUGGCAG (DNA:RNA)
RNA: B1 RNA with A25C, A26U, U27G, G29C, A31G
DNA 1: CAATCTGAATTCCGGTCTCCC
DNA 2: TGGTGGCTACGACGGGATT
B24: CAUGCCC (DNA:RNA)
RNA: B1 RNA with A25C, G29C, A30C, A31C
DNA 1: CAATCTGAATTCCGGTCTCCC
DNA 2: TGGTGGCTACGACGGGATT
B25: CGAAGAU (DNA:RNA)
RNA: B1 RNA with A25C, A26G, U27A, G28A, A31U
DNA 1: CAATCTGAATTCCGGTCTCCC
DNA 2: TGGTGGCTACGACGGGATT
B26: AUUACGG (DNA:RNA)
RNA: B20 RNA with U25A, C26U, A27U, U28A
DNA 1: CAATCTGAATTCCGGTCTCCC
DNA 2: TGGTGGCTACGACGGGATT
B27: UUACGGA (DNA:RNA)
RNA: B20 RNA with C26U, U28C, C29G, G31A
DNA 1: CAATCTGAATTCCGGTCTCCC
DNA 2: TGGTGGCTACGACGGGATT
B28: GAGCGCA (DNA:RNA)
RNA: B1 RNA with A25G, U27G, G28C, A30C
DNA 1: CAATCTGAATTCCGGTCTCCC
DNA 2: TGGTGGCTACGACGGGATT
B29: AGCUCAC (DNA:RNA)
RNA: B1 RNA with A26G, U27C, G28U, G29C, A31C
DNA 1: CAATCTGAATTCCGGTCTCCC
DNA 2: TGGTGGCTACGACGGGATT
B30: CGACGAG (DNA:RNA)
RNA: B1 RNA with A25C, A26G, U27A, G28C, A31G
DNA 1: CAATCTGAATTCCGGTCTCCC
DNA 2: TGGTGGCTACGACGGGATT
B31: GAGCUCC (DNA:RNA)
RNA: B8 RNA with U26A, A28C, U30C
DNA 1: CAATCTGAATTCCGGTCTCCC
DNA 2: TGGTGGCTACGACGGGATT

Positions count from the first letter of the chain named. Some of the results follow.

In this assay the target is T1, RBFOX1 RRM. Description: EMSA; HiTS-Eq, 1 nM pool, 10 min; buffer printed only for the single-RNA assays: 10 mM Tris pH 7.5, 150 mM NaCl, 3.4 mM EDTA, 0.001% NP-40, 30 C. The following applies: tags: His6 N-terminal (pET28a); label: 5' 32P. A digest of the protocol:
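Purified RbFox RRM, wild type or mutant, was incubated for 10 min in 50 µL with 1 nM of a 5′-radiolabelled RNA pool carrying 7 randomized nucleotides, whose flanks were annealed to DNA oligonucleotides, over a series of increasing protein concentrations. Unbound RNA was resolved on 8% native PAGE, cut out, reverse-transcribed, barcoded by PCR and sequenced on an Illumina HiSeq 2500. Relative association constants were derived from changes in read counts for each RNA species versus the control reaction and normalised to the cognate motif.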
Background: A gel shift assay detects complexes by their altered migration in electrophoresis.
As to B1, the binding signal was 0.00264 KA relative to UGCAUGU.

In the case of B2, the binding signal is 0.00531 KA relative to UGCAUGU.

As for B3, the binding signal is 0.0154 KA relative to UGCAUGU.

B4: the binding signal is 0.0146 KA relative to UGCAUGU.

For the molecule B5, the binding signal is 0.00651 KA relative to UGCAUGU.

In the case of B6, the binding signal was 0.00151 KA relative to UGCAUGU.

For B7, the binding signal was 0.013 KA relative to UGCAUGU.

On to B8, for which the binding signal was 0.0148 KA relative to UGCAUGU.

Turning to B9, the binding signal was 0.0181 KA relative to UGCAUGU.

As to B10, the binding signal is 0.00331 KA relative to UGCAUGU.

Take B11: the binding signal was 0.00377 KA relative to UGCAUGU.

In the case of B12, the binding signal is 0.0106 KA relative to UGCAUGU.

For the molecule B13, the binding signal was 0.00378 KA relative to UGCAUGU.

B14: the binding signal is 0.0115 KA relative to UGCAUGU.

As for B15, the binding signal is 0.016 KA relative to UGCAUGU.

Take B16: the binding signal is 0.00796 KA relative to UGCAUGU.

For B17, the binding signal is 0.0086 KA relative to UGCAUGU.

B18: the binding signal was 0.0056 KA relative to UGCAUGU.

B19: the binding signal is 0.0118 KA relative to UGCAUGU.

On to B20, for which the binding signal is 0.00798 KA relative to UGCAUGU.

B21: the binding signal is 0.0121 KA relative to UGCAUGU.

As to B22, the binding signal was 0.0232 KA relative to UGCAUGU.

Consider B23, for which the binding signal is 0.0227 KA relative to UGCAUGU.

In the case of B24, the binding signal is 0.00556 KA relative to UGCAUGU.

Turning to B25, the binding signal was 0.00689 KA relative to UGCAUGU.

As for B26, the binding signal was 0.00648 KA relative to UGCAUGU.

As for B27, the binding signal is 0.00194 KA relative to UGCAUGU.

In the case of B28, the binding signal was 0.0188 KA relative to UGCAUGU.

Consider B29, for which the binding signal was 0.00457 KA relative to UGCAUGU.

Turning to B30, the binding signal was 0.0158 KA relative to UGCAUGU.

As to B31, the binding signal is 0.0192 KA relative to UGCAUGU.
